Results as given in PubChem BioAssay AID651820 (National Center for Advancing Translational Sciences (NCATS), 2012).
The campaign covered roughly 340,000 compounds. About 12,000 (3.5%) were called active. The inconclusive results got no clear call from the source; some entries with a clear call stand among them for comparison. Calls come from the whole dose curve; as a rule, active = well fitted inhibition curve with a large enough effect; inconclusive = small, poorly fitted or top-dose-only effect, or another doubt; inactive = no such curve, though single readings can be large or run the other way. No potency is given beside an inconclusive call; the fits are too rough.

Assay: qHTS Assay for Inhibitors of Hepatitis C Virus (HCV)
Settings: Huh7.5.1 HCVcc-Cre (HCVcc is cell-culture hepatitis C virus) infection, luciferase reporter, 44 h; activity change, negative = inhibition: at 41.8 µM (top of the series) unless noted
In short: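 1,000 cells/well; 4 h culture; + compound; + HCVcc-Cre (~0.5 moi); 44 h; luciferase substrate, RT 15 min; read 15 sec.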
% is set by controls: 0 for no effect and ±100 for the full control effect; potency is the fitted concentration of half-maximal effect; tags give direction and shape of the fitted curve.

| SMILES | Potency | activity change, negative = inhibition |
| --- | --- | --- |
| CCc1ccccc1NC(=O)CSc1ccsc1[N+](=O)[O-] | inconclusive [inhibitor, single point] | – |
| CC(=O)Nc1ccc(S(=O)(=O)N2CCC(C(=O)c3ccc(Cl)cc3)CC2)cc1 | inconclusive [inhibitor, single point] | – |
| COc1cccc(NC(=O)CN2C(=O)C(c3ccc(C)cc3)=NC23CCCCCC3)c1 | inconclusive [inhibitor, full curve, poor fit] | – |
| O=C1CC(c2ccco2)c2ccc3ccccc3c2N1 (stereo not given) | inconclusive [inhibitor, single point] | – |
| CN(CCO)c1cc(NCCCN2CCC(Cc3ccccc3)CC2)c2nonc2c1[N+](=O)[O-] | inconclusive [inhibitor, full curve, poor fit] | – |
| Cc1onc(-c2ccccc2)c1CNC(=O)CN1C(=O)c2ccccc2C1=O | inconclusive [inhibitor, single point] | – |
| COC1=C(C)C(=O)C2=C(C1=O)C1C3CC4=C(C(=O)C(OC)=C(C)C4=O)C(CNC(=O)C(C)=O)N3C(C#N)C(C2)N1C (stereo not given) | inconclusive [inhibitor, partial curve] | – |
| Cc1c(Br)c([N+](=O)[O-])nn1CC(=O)Nc1sc2c(c1C(=O)OC(C)C)CCCC2 | inconclusive [inhibitor, partial curve] | – |
| Cc1[nH]c2ccccc2c1C(=O)CSC(=S)N1CCCCC1 | inconclusive [inhibitor, single point] | – |
| COc1ccccc1NS(=O)(=O)c1cc(C(=O)NC2CCN(Cc3ccccc3)CC2)ccc1C | active: 5.62 µM | – |
| O=C(NCc1ccccc1C(F)(F)F)C12CN(Cc3ccccc3)CC1C(c1ccc([N+](=O)[O-])cc1)=NO2 (stereo not given) | inconclusive [inhibitor, single point] | – |
| CC(Oc1ccc(Cl)cc1Cl)c1nc(-c2ccc(NC(=O)c3ccccn3)cc2)no1 (stereo not given) | inconclusive [inhibitor, partial curve] | – |
| O=C(C1CCN(c2nc(-c3ccccc3)nc3c2CCC3)CC1)N1CCCC1 | active: 11.2 µM | – |
| CCn1cc(CCC(=O)NCCc2ccccc2)c2ccccc21 | inconclusive [inhibitor, full curve, poor fit] | – |
| COc1ccc2cc([C@H](C)C(=O)N(C)Cc3ccccc3N3CCCC3)ccc2c1 | active: 10 µM | – |
| COc1cccc(CN(Cc2ccco2)C(c2ccc(F)cc2)c2nnnn2C(C)(C)C)c1 (stereo not given) | inconclusive [inhibitor, single point] | – |
| Cc1cc(N2CCOCC2)nc(SCC(=O)c2ccccc2)n1 | inconclusive [inhibitor, partial curve] | – |
| COc1ccc(OCc2nn3c(Cn4cnc5ccccc54)nnc3s2)cc1 | inconclusive [inhibitor, partial curve] | – |
| O=C(CCS(=O)(=O)c1ccccc1)Nc1ccc(N2CCN(Cc3ccccc3)CC2)cc1 | inconclusive [inhibitor, single point] | – |
| CCn1nnnc1SCC(=O)c1cccc(OC)c1 | – | inactive: -6.42% |

| SMILES | Potency | activity change, negative = inhibition |
| --- | --- | --- |
| O=C(CCc1nnc2n(Cc3ccc(Cl)cc3)c(=O)c3ccccc3n12)NCCN1CCCC1 | active: 3.55 µM | – |
| CC(=O)C[C@@H](O)CC(=O)[C@@H]1OC(=O)CCCCC/C=C/Cc2ccccc21 | inconclusive [inhibitor, single point] | – |
| CC1CCCN(C(=O)C(C)Sc2nc(-c3ccccc3)cc(C(F)(F)F)n2)C1 (stereo not given) | inconclusive [inhibitor, partial curve] | – |
| CCCC(=O)Nc1nn(CCC)c2nc3ccccc3cc12 | inconclusive [inhibitor, single point] | – |
| COCCNCCOc1ccc(C(C)(C)c2ccccc2)cc1 | inconclusive [inhibitor, partial curve, poor fit] | – |
| Cc1ccc(CS(=O)Cc2ccc(C(=O)NCc3ccc(OC(C)C)cc3)o2)cc1 (stereo not given) | inconclusive [inhibitor, partial curve] | – |
| O=C(CSCc1cccc(Cl)c1)N/N=C/c1ccc(OCC(=O)N2CCCCC2)cc1 | inconclusive [inhibitor, partial curve] | – |
| COc1cc(C(=O)NC2CC(C)(C)Cc3c2cnn3-c2ccccc2)cc(OC)c1OC (stereo not given) | inconclusive [inhibitor, single point] | – |
| CC(=O)C(C(c1ccccc1)c1c[nH]c2ccccc12)[N+](=O)[O-] (stereo not given) | inconclusive [inhibitor, partial curve] | – |
| CCCSc1nnc2[nH]c(=O)cc(N)n12 | inconclusive [inhibitor, single point] | – |
| C=CC[C@@H](CC(=O)N(CCO)Cc1ccccc1)C(=O)NC[C@@H](OC(=O)[C@@H](CC=C)CC(=O)OC(C)(C)C)c1ccccc1 | active: 10 µM | – |
| Fc1ccc(-c2ccnn2-c2ccccc2)cc1 | – | inactive: -4.74% |
| CCOc1cccc(NC(=O)C2CC(=O)NC(=Nc3ccccc3)S2)c1 (stereo not given) | inconclusive [inhibitor, single point] | – |
| CC1CCN(CC(O)COc2ccc(-c3ccccc3)cc2)CC1 (stereo not given) | inconclusive [inhibitor, full curve] | – |
| O=C(c1cccc(C(=O)N2CCN(c3ccc(F)cc3)CC2)c1)N1CCN(c2ccc(F)cc2)CC1 | active: 11.2 µM | – |
| CC(=O)CCS(=O)(=O)c1ccc(Oc2ccc(S(=O)(=O)CCC(C)=O)cc2)cc1 | inconclusive [inhibitor, single point] | – |
| Cc1sc2nc(CN3CCCC3)nc(N3CCN(C(=O)c4ccco4)CC3)c2c1C | inconclusive [inhibitor, full curve, poor fit] | – |
| CCCCCCOc1ccc(/C(C)=N/NC2=NCCN2)cc1 | active: 11.2 µM | – |
| O=C(/C=C/c1cccc(Cl)c1)c1nc2ccccc2[nH]1 | inconclusive [inhibitor, single point] | – |
| COc1ccc(-c2cc(CCC(=O)N3CCN(c4cc(C)ccc4C)CC3)[nH]n2)cc1 | inconclusive [inhibitor, partial curve] | – |
